# From the supplement of paper PMC8728848
# Some of the results follow.
# B1: Strep tagII-anxA1 (Homo sapiens), P04083 (protein)
# chain: MAMVSEFLKQAWFIENEEQEYVQTVKSSKGGPGSAVSPYPTFNPSSDVAALHKAIMVKGVDEATIIDILTKRNNAQRQQIKAAYLQETGKPLDETLKKALTGHLEEVVLALLKTPAQFDADELRAAMKGLGTDEDTLIEILASRTNKEIRDINRVYREELKRDLAKDITSDTSGDFRNALLSLAKGDRSEDFGVNEDLADSDARALYEAGERRKGTDVNVFNTILTTRSYPQLRRVFQKYTKYSKHDMNKVLDLELKGDIEKCLTAIVKCATSKPAFFAEKLHQAMKGVGTRHKALIRIMVSRSEIDMNDIKAFYQKMYGISLCQAILDETKGDYEKILVALCGGN
# Key:
# Experiment in all cases: glycan array binding signal (z-score within array); higher = stronger binding
# Details in all cases: glycan notation: IUPAC condensed, linker removed
# Gal(b1-3)GlcNAc6S = target: Gal(b1-3)GlcNAc6S
# How it was run: (§1)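 Glycan array data came from 3228 arrays in the Consortium for Functional Glycomics database, and only arrays with an available protein sequence were kept. Glycan names were put into IUPAC-condensed notation, and columns mapping to the same glycan were averaged. The binding signal is a within-array Z-score, averaged across arrays of one protein sequence run at different concentrations or buffers and across linkers. A negative Z-score can be read as non-binding.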
# [1] = target: Gal(b1-3)[Fuc(a1-4)]GlcNAc
# How it was run: as §1
# [2] = target: Gal(b1-3)[Fuc(a1-4)]GlcNAc(b1-2)Man(a1-3)[Gal(b1-3)[Fuc(a1-4)]GlcNAc(b1-2)Man(a1-6)]Man(b1-4)GlcNAc(b1-4)[Fuc(a1-6)]GlcNAc
# How it was run: as §1
# [3] = target: Gal(b1-3)[Fuc(a1-4)]GlcNAc(b1-3)Gal(b1-3)[Fuc(a1-4)]GlcNAc
# How it was run: as §1
# [4] = target: Gal(b1-3)[Fuc(a1-4)]GlcNAc(b1-3)Gal(b1-4)GlcNAc
# How it was run: as §1
# [5] = target: Gal(b1-3)[Fuc(a1-4)]GlcNAc(b1-3)Gal(b1-4)[Fuc(a1-3)]GlcNAc
# How it was run: as §1
# [6] = target: Gal(b1-3)[Fuc(a1-4)]GlcNAc(b1-6)GalNAc
# How it was run: as §1
# [7] = target: Gal(b1-3)[GlcNAc(b1-6)]GalNAc
# How it was run: as §1
# [8] = target: Gal(b1-3)[Neu5Ac(a2-6)]GalNAc
# How it was run: as §1
# [9] = target: Gal(b1-3)[Neu5Ac(a2-6)]GlcNAc(b1-6)Gal(b1-4)Glc
# How it was run: as §1
# [10] = target: Gal(b1-3)[Neu5Ac(b2-6)]GalNAc
# How it was run: as §1
# Gal(b1-4)Gal = target: Gal(b1-4)Gal
# How it was run: as §1
# [11] = target: Gal(b1-4)GalNAc(a1-3)[Fuc(a1-2)]Gal(b1-4)GlcNAc
# How it was run: as §1
# [12] = target: Gal(b1-4)GalNAc(b1-3)[Fuc(a1-2)]Gal(b1-4)GlcNAc
# How it was run: as §1
# Gal(b1-4)Glc = target: Gal(b1-4)Glc
# How it was run: as §1
# Gal(b1-4)Glc6S = target: Gal(b1-4)Glc6S
# How it was run: as §1
# Gal(b1-4)GlcNAc = target: Gal(b1-4)GlcNAc
# How it was run: as §1
# [13] = target: Gal(b1-4)GlcNAc(a1-6)Gal(b1-4)GlcNAc
# How it was run: as §1
# Gal(b1-4)GlcNAc(b1-2)Man = target: Gal(b1-4)GlcNAc(b1-2)Man
# How it was run: as §1
# [14] = target: Gal(b1-4)GlcNAc(b1-2)Man(a1-3)Man(b1-4)GlcNAc(b1-4)GlcNAc
# How it was run: as §1
# [15] = target: Gal(b1-4)GlcNAc(b1-2)Man(a1-3)[Gal(b1-4)GlcNAc(b1-2)Man(a1-6)]Man(b1-4)GlcNAc(b1-4)GlcNAc
# How it was run: as §1
# [16] = target: Gal(b1-4)GlcNAc(b1-2)Man(a1-3)[Gal(b1-4)GlcNAc(b1-2)Man(a1-6)]Man(b1-4)GlcNAc(b1-4)[Fuc(a1-6)]GlcNAc
# How it was run: as §1
# [17] = target: Gal(b1-4)GlcNAc(b1-2)Man(a1-3)[Gal(b1-4)GlcNAc(b1-2)][GlcNAc(b1-4)]Man(b1-4)GlcNAc(b1-4)GlcNAc
# How it was run: as §1
# [18] = target: Gal(b1-4)GlcNAc(b1-2)Man(a1-3)[GlcNAc(b1-2)Man(a1-6)]Man(b1-4)GlcNAc(b1-4)GlcNAc
# How it was run: as §1
# [19] = target: Gal(b1-4)GlcNAc(b1-2)Man(a1-3)[Man(a1-6)]Man(b1-4)GlcNAc(b1-4)GlcNAc
# How it was run: as §1
# [20] = target: Gal(b1-4)GlcNAc(b1-2)Man(a1-6)Man(b1-4)GlcNAc(b1-4)GlcNAc
# How it was run: as §1
# [21] = target: Gal(b1-4)GlcNAc(b1-2)Man(a1-6)[GlcNAc(b1-2)Man(a1-3)]Man(b1-4)GlcNAc(b1-4)GlcNAc
# How it was run: as §1
# [22] = target: Gal(b1-4)GlcNAc(b1-2)Man(a1-6)[Man(a1-3)]Man(b1-4)GlcNAc(b1-4)GlcNAc
# How it was run: as §1
# [23] = target: Gal(b1-4)GlcNAc(b1-2)[Gal(b1-4)GlcNAc(b1-4)]Man(a1-3)[Gal(b1-4)GlcNAc(b1-2)Man(a1-6)]Man(b1-4)GlcNAc(b1-4)GlcNAc
# How it was run: as §1
# [24] = target: Gal(b1-4)GlcNAc(b1-2)[Gal(b1-4)GlcNAc(b1-4)]Man(a1-3)[Gal(b1-4)GlcNAc(b1-2)[Gal(b1-4)GlcNAc(b1-6)]Man(a1-6)]Man(b1-4)GlcNAc(b1-4)GlcNAc
# How it was run: as §1
# [25] = target: Gal(b1-4)GlcNAc(b1-2)[Gal(b1-4)GlcNAc(b1-4)]Man(a1-3)[GlcNAc(b1-4)][Gal(b1-4)GlcNAc(b1-2)Man(a1-6)]Man(b1-4)GlcNAc(b1-4)GlcNAc
# How it was run: as §1
# [26] = target: Gal(b1-4)GlcNAc(b1-2)[Gal(b1-4)GlcNAc(b1-4)]Man(a1-3)[GlcNAc(b1-4)][Gal(b1-4)GlcNAc(b1-2)[Gal(b1-4)GlcNAc(b1-6)]Man(a1-6)]Man(b1-4)GlcNAc(b1-4)GlcNAc
# How it was run: as §1
# [27] = target: Gal(b1-4)GlcNAc(b1-2)[Gal(b1-4)GlcNAc(b1-4)]Man(a1-3)[GlcNAc(b1-4)][Gal(b1-4)GlcNAc(b1-2)[Gal(b1-4)GlcNAc(b1-6)]Man(a1-6)]Man(b1-4)GlcNAc(b1-4)[Fuc(a1-6)]GlcNAc
# How it was run: as §1
# [28] = target: Gal(b1-4)GlcNAc(b1-2)[Gal(b1-4)GlcNAc(b1-6)]Man(a1-6)[Gal(b1-4)GlcNAc(b1-2)Man(a1-3)]Man(b1-4)GlcNAc(b1-4)GlcNAc
# How it was run: as §1
# [29] = target: Gal(b1-4)GlcNAc(b1-2)[Gal(b1-4)GlcNAc(b1-6)]Man(a1-6)[Gal(b1-4)GlcNAc(b1-2)Man(a1-3)]Man(b1-4)GlcNAc(b1-4)[Fuc(a1-6)]GlcNAc
# How it was run: as §1
# [30] = target: Gal(b1-4)GlcNAc(b1-2)[Gal(b1-4)GlcNAc(b1-6)]Man(a1-6)[GlcNAc(b1-4)][Gal(b1-4)GlcNAc(b1-2)Man(a1-3)]Man(b1-4)GlcNAc(b1-4)GlcNAc
# How it was run: as §1
# [31] = target: Gal(b1-4)GlcNAc(b1-3)Gal(b1-3)GlcNAc
# How it was run: as §1
binder,measurement,setting,value
B1,glycan array binding signal (z-score),Gal(b1-3)GlcNAc6S,0.931
same,glycan array binding signal (z-score),[1],0.765
same,glycan array binding signal (z-score),[2],2.5
same,glycan array binding signal (z-score),[3],-0.366
same,glycan array binding signal (z-score),[4],-0.748
same,glycan array binding signal (z-score),[5],-0.588
same,glycan array binding signal (z-score),[6],0.179
same,glycan array binding signal (z-score),[7],-0.339
same,glycan array binding signal (z-score),[8],-0.631
same,glycan array binding signal (z-score),[9],-0.49
same,glycan array binding signal (z-score),[10],-0.714
same,glycan array binding signal (z-score),Gal(b1-4)Gal,-0.735
same,glycan array binding signal (z-score),[11],-0.754
same,glycan array binding signal (z-score),[12],0.232
same,glycan array binding signal (z-score),Gal(b1-4)Glc,0.139
same,glycan array binding signal (z-score),Gal(b1-4)Glc6S,-0.455
same,glycan array binding signal (z-score),Gal(b1-4)GlcNAc,-0.156
same,glycan array binding signal (z-score),[13],0.231
same,glycan array binding signal (z-score),Gal(b1-4)GlcNAc(b1-2)Man,0.18
same,glycan array binding signal (z-score),[14],-0.266
same,glycan array binding signal (z-score),[15],-0.682
same,glycan array binding signal (z-score),[16],-0.215
same,glycan array binding signal (z-score),[17],1.45
same,glycan array binding signal (z-score),[18],-0.567
same,glycan array binding signal (z-score),[19],1.08
same,glycan array binding signal (z-score),[20],-0.229
same,glycan array binding signal (z-score),[21],0.018
same,glycan array binding signal (z-score),[22],-0.601
same,glycan array binding signal (z-score),[23],-0.585
same,glycan array binding signal (z-score),[24],-0.679
same,glycan array binding signal (z-score),[25],-0.723
same,glycan array binding signal (z-score),[26],0.034
same,glycan array binding signal (z-score),[27],-0.742
same,glycan array binding signal (z-score),[28],1.51
same,glycan array binding signal (z-score),[29],1.21
same,glycan array binding signal (z-score),[30],-0.186
same,glycan array binding signal (z-score),[31],-0.436
